These results are taken from ChEMBL document CHEMBL4888484, “Replenishing the malaria drug discovery pipeline: Screening and hit evaluation of the MMV Hit Generation Library 1 (HGL1) against asexual blood stage Plasmodium falciparum ,using a nano luciferase reporter read-out” (2022).

Structures are written as SMILES. Among all 150,000 compounds or so, about 540 (0.36%) showed an effect of 50% or more. The list shows a part of the results.

This assay has as its system Plasmodium falciparum. Nature of the assay: Primary screen in NF54 nanoGlo assay, in single point, at 2uM, 72h; a lower Z score goes with more inhibition. It counts as functional, Erythrocyte. Particulars: timepoint 72 hour.
Regarding `CNc1ccc(C(=O)N[C@H]2CC[C@H](CO)CC2)cn1`, the “% Inhibition” value is listed as -11% and the Z score stood at 1.32.
Regarding `CC(C)(C)n1nc(-c2ccccc2)c(NC(=O)NC2CCCCC2)c1N`, the “% Inhibition” value is given as -8% and the Z score stood at 1.23.
As for `COCCCNC(=O)Nc1cc(Cl)c(OC)c(Cl)c1`, the “% Inhibition” value amounted to 1% and the Z score is -0.22.
For the molecule `CCCc1nc(Cn2nnc(C3CC3)n2)no1`, the “% Inhibition” value is given as -8% and the Z score was found to be 1.5.
`Fc1ccccc1-c1cc(NCCCn2ccnn2)n2nccc2n1`: the “% Inhibition” value was -6% and the Z score stood at 1.16.
With `Cc1[nH]c2c(ccc3cccnc32)c1C1C(CC(N)=O)C1(C)C` (stereo unspecified), the “% Inhibition” value worked out at 8% and the Z score is -1.13.
On to `CCNC(=O)NC(=O)[C@H](C)Nc1cccc(C(=O)NC)c1`, for which the “% Inhibition” value was 0% and the Z score is reported as -0.08.
For the molecule `C=CCO[C@H]1[C@H](NC(=O)COC)c2ccccc2C12CCN(Cc1[nH]c3c(C)cccc3c1C)CC2`, the “% Inhibition” value is -8% and the Z score worked out at 1.63.
For `CCn1nccc1-c1csc(S(=O)(=O)Nc2cc(C)ccc2C)c1`, the “% Inhibition” value was -14% and the Z score was determined as 1.73.
The matching figures for `CCCn1cc(-c2ccnc(N[C@@H](C)c3cnn(C)c3C)n2)c(C)n1`: -19% and 2.46.
With `CC[C@@H](C(=O)NCc1ccccc1)n1cnc2onc(-c3ccc(Cl)cc3)c2c1=O`, the “% Inhibition” value was -6% and the Z score is 0.85.
The matching figures for `CN(Cc1cc(C(F)(F)F)ccc1Cl)[C@H]1CCc2nn(C)c(=O)n2CC1`: 37% and -4.92.
Consider `O=C(NC1CC1)c1ccc(S(=O)(=O)NC[C@H](O)c2ccccc2)cc1`, for which the “% Inhibition” value is -15% and the Z score is reported as 2.64.
For `CCc1nc2ccccc2c(C(=O)N2CCN(c3cc(OC)ncn3)CC2)c1C`, the “% Inhibition” value is reported as -13% and the Z score was 1.69.
Turning to `CC(C)[C@@H]1NC(=O)N(Cc2nccn2CC(F)(F)F)C1=O`, the “% Inhibition” value amounted to 3% and the Z score is listed as -0.4.
The matching figures for `CC(=O)N1C[C@]23C=C[C@H](C[C@H]2CC12CCCCC2)O3`: -8% and 1.03.
Consider `Cc1ccc(NC(=O)N[C@@H](C(C)(C)C)C(F)(F)F)cc1`, for which the “% Inhibition” value came out at 2% and the Z score was -0.25.
On to `C=Cn1cc(CN2CC[S+]([O-])CC(C)C2)cn1` (stereo unspecified), for which the “% Inhibition” value turned out to be 2% and the Z score is -0.24.
On the same counts, the results for `CCN(C(=O)c1ccnc(C2CC2)c1)[C@@H](C)CS(C)(=O)=O` are -4% and 0.89.
On the same counts, the results for `Cc1cc(-c2cccc(C(=O)N3CCN(CCO)CC3)c2)nc(C)c1C#N` are -8% and 0.85.
`Cc1cc(C(=O)NCC[C@H](O)c2ccco2)no1`: the “% Inhibition” value was -5% and the Z score was 0.82.
Regarding `CCOC(=O)N1CCN(C(=O)Cn2nc(C3CC3)ccc2=O)CC1`, the “% Inhibition” value worked out at 5% and the Z score is listed as -0.6.
With `NC(=O)C[C@H](NC(=O)NCc1ccco1)C1CCOCC1`, the “% Inhibition” value is -4% and the Z score worked out at 0.61.
Regarding `Cc1ccc(C(=O)NC2(C(F)F)CC2)cn1`, the “% Inhibition” value is reported as 10% and the Z score is -1.
Take `CCOc1cc(N(C)Cc2c(C)noc2C)ncn1`: the “% Inhibition” value is -7% and the Z score was found to be 0.77.
In the case of `CC1CC(C)C(C)N(S(=O)(=O)c2ccco2)C1` (stereo unspecified), the “% Inhibition” value is on record as -8% and the Z score was found to be 0.97.
Take `COc1ccc(S(=O)(=O)NC[C@H]2O[C@@H](CO)[C@@H](O)[C@H]2N(C)Cc2ccccc2)cc1`: the “% Inhibition” value is recorded as -3% and the Z score was determined as 0.35.
With `C[C@H]1[C@@H](C(F)(F)F)OCCN1C(=O)c1ccc(C2CC2)nc1O`, the “% Inhibition” value is given as -13% and the Z score is recorded as 2.5.
As for `Cn1ccnc1CN(CCO)C(=O)Cc1cccnc1`, the “% Inhibition” value is listed as -8% and the Z score was determined as 1.1.
Consider `N#Cc1c(N)nc2c(c1-c1cccc(O)c1)CCc1[nH]ccc1-2`, for which the “% Inhibition” value is listed as -13% and the Z score turned out to be 1.45.
In the case of `Cc1ccc(O)c(S(=O)(=O)N2CCN(C(=O)NC3CCN(c4ccc(C#N)cc4)CC3)CC2)c1`, the “% Inhibition” value was -10% and the Z score stood at 1.14.
On to `CC(C)OCC(O)CN(Cc1cccc(F)c1)CC1CC(c2ccccc2)=NO1` (stereo unspecified), for which the “% Inhibition” value worked out at 5% and the Z score is reported as -0.49.
On the same counts, the results for `CCN(C)C1(CNC(=O)c2ccncc2Cl)CCCC1` are 3% and -0.33.
For the molecule `O=C(CCNC(=O)C1CCCC1)NC1CC1`, the “% Inhibition” value is recorded as -20% and the Z score was found to be 1.88.
In the case of `CC(C)c1nc(-c2noc(-c3ncn(C(C)(C)C)n3)n2)cs1`, the “% Inhibition” value is reported as 4% and the Z score was -0.84.
As to `CC(c1ccc(Cl)cc1)C(C)N(C)C(=O)NCCS(C)(=O)=O` (stereo unspecified), the “% Inhibition” value was -5% and the Z score turned out to be 0.48.
For the molecule `OC1(c2ccc(-c3ccccc3)cc2)CCNCC1`, the “% Inhibition” value is recorded as -12% and the Z score amounted to 1.7.
Consider `CC(=O)Nc1cc(NCc2nc(C)cs2)ccc1Cl`, for which the “% Inhibition” value is -8% and the Z score is on record as 0.82.
The matching figures for `O[C@@H](Cn1nnnc1CCCc1ccccc1)C(F)(F)F`: -4% and 0.75.
`CCc1noc(C)c1CNC(=O)N1CCS(=O)(=O)C[C@H]1C1CCC1`: the “% Inhibition” value was -12% and the Z score was 2.29.
`O=C(C1CC1C1CCC1)N1CCC12CCC2` (stereo unspecified): the “% Inhibition” value is on record as -2% and the Z score was determined as 0.18.
As for `O=S1(=O)CCN(Cc2noc(-c3ccco3)n2)CC1`, the “% Inhibition” value was -2% and the Z score worked out at 0.25.
As for `Cc1nc(C(=O)NC(C)C(=O)N2c3ccccc3CC2C)c(C)o1` (stereo unspecified), the “% Inhibition” value is -13% and the Z score is reported as 1.85.
